Laboratory results reported in PubChem BioAssay AID504832 (National Center for Advancing Translational Sciences (NCATS), 2011).
Several values for one entry are separate records, joined by “and”; a condition that tells them apart may be missing. Equal entries are not always repeated. Out of some 310,000 compounds screened, about 18,000 (5.8%) were called active. Inconclusive results, whose numbers are uncertain, are shown with a selection of clear calls. The call rests on the fitted dose curve; in most records, active means well fitted inhibition curve with a large enough effect; inconclusive means small, poorly fitted or top-dose-only effect, or another doubt; inactive means no such curve, though single readings can be large or run the other way. Potencies of inconclusive entries are left out as doubtful fits.

Assay: Primary qHTS for delayed death inhibitors of the malarial parasite plastid, 48 hour incubation
Conditions: P. falciparum luciferase growth in erythrocytes; series mostly up to 28.7 µM
Procedure, shortened: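 Read-out is firefly luciferase luminescence from an integrated reporter in P. falciparum, so falling signal marks reduced parasite growth. Infected erythrocytes were at 2% hematocrit and 0.1% parasitemia (final) in Albumax-supplemented RPMI 1640.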
Potency means the concentration at half of the fitted maximal effect; tags describe the fitted curve by direction and shape.

Structure (SMILES)	Potency
CC(=O)c1ccc(NC(=O)Nc2ccccc2)cc1	inactive
Cc1nc(S(=O)(=O)N2CCN(C3c4ccccc4-c4ccccc43)CC2)cn1C	inconclusive [inhibitor, full curve]
CSc1nc(N2CCOCC2)c2c(c1C#N)CC(C(C)C)OC2 (stereo not given)	inconclusive [inhibitor, partial curve, poor fit]
CCOc1ccc(C(=O)NCCc2ccc3c(c2)OCCO3)cc1	inactive
Cc1csc(C)[n+]1CC(=O)c1ccccc1	inconclusive [inhibitor, single point]
Cc1cc(/C=N/NC(=O)c2cc3ccccc3o2)c(C)n1C	inconclusive [inhibitor, single point]
Cc1cccc(N2CCN(C(=O)CSc3ccc4c(c3)OCCO4)CC2)c1C	inconclusive [inhibitor, single point]
CS(=O)(=O)c1ccc([C@@H](O)[C@@H](CO)NC(=O)C(Cl)Cl)cc1	inconclusive [inhibitor, single point]
N/C(=N\OC(=O)CC1CCCCC1)c1cccc(Br)c1	inconclusive [inhibitor, single point]
CC(C)c1ccc(OCC(O)Cn2cnc3ccccc32)cc1 (stereo not given)	active: 11.7 µM
CCOC(=O)C1(CC2CC2)CCN(Cc2cn[nH]c2-c2ccccc2)CC1	inactive
CC1(C)CC(=O)C/C(=N\NC(=S)NCc2ccccc2)C1	inconclusive [inhibitor, single point]
O=C1c2cccc(OCC(=O)N3N=C(c4cccs4)CC3c3ccc(F)cc3)c2CCN1Cc1ccccc1 (stereo not given)	active: 7.38 µM
CC1CCCN(C(C(=O)NC2CCCCC2)c2cc3c(cc2[N+](=O)[O-])OCO3)C1 (stereo not given)	inconclusive [inhibitor, partial curve]
Cc1ccnc(NC(=O)c2ccc(NC(=O)CC3SC(N4CCCC4)=NC3=O)cc2)c1 (stereo not given)	inconclusive [inhibitor, full curve, poor fit]
CCN1CCN(c2ccc(N)cc2C)CC1	inconclusive [inhibitor, single point]
Cc1cccc(C(=O)NC2CCN(C(=O)NCc3ccccc3)CC2)c1	inactive
O=C(c1cc2nc(-c3ccccc3)cc(-c3ccccc3)n2n1)N1CCC2(CC1)OCCO2	inconclusive [inhibitor, single point]
O=S(=O)(c1ccccc1)c1nc(-c2ccco2)oc1NCc1ccco1	inconclusive [inhibitor, single point]
O=C(NN1C(=O)C2C3CCC(O3)C2C1=O)c1ccco1 (stereo not given)	inactive
Cc1cc(=O)oc2cc(NC(=S)NCc3ccccn3)ccc12	inactive
Cc1cccc(C2C3=C(CCCC3=O)N=C3c4ccccc4C(=O)C32)c1 (stereo not given)	inconclusive [inhibitor, partial curve, poor fit]
O=C(O)c1cn(C2CCCCC2)c2ccccc2c1=O	inconclusive [inhibitor, partial curve, poor fit]
O=[N+]([O-])c1ccc(Nc2c3ccccc3nc3ccccc23)cc1	inconclusive [inhibitor, single point]

Structure (SMILES)	Potency
COc1ccc(N2C(=O)C(Cc3ccccc3)NC2=S)cc1 (stereo not given)	inactive
Cn1c(SCC(=O)c2ccc3c(c2)Cc2ccccc2-3)nnc1-c1cccc(N)c1	inconclusive [inhibitor, single point]
Cc1ccc(Cn2c(SCC(=O)N3CC(=O)Nc4ccccc43)nc3ccccc3c2=O)cc1	inconclusive [inhibitor, partial curve]
Cc1ccc(OCCCCNC(C)(C)C)c([N+](=O)[O-])c1	inconclusive [inhibitor, single point]
CCOC(=O)c1[nH]c(=O)[nH]c1CN(Cc1ccco1)Cc1[nH]c(=O)[nH]c1C(=O)OCC	inactive
OCCN(CCO)CC(O)CN1c2ccccc2Sc2ccccc21 (stereo not given)	inconclusive [inhibitor, single point]
COc1cc(NC(=O)CNc2cccc(S(=O)(=O)N3CCOCC3)c2)cc(OC)c1	inconclusive [inhibitor, single point]
CC(=O)c1cccc(NC(=O)CNC(=O)c2sc3ccccc3c2Cl)c1	inconclusive [inhibitor, single point]
CC1CCCCC1NC(=O)Cc1ccc(S(=O)(=O)N2CCOCC2)s1 (stereo not given)	inconclusive [inhibitor, partial curve]
CCn1c(=O)c(C(=O)Nc2ccc(C)cc2C)c(O)c2ccccc21	inactive
O=C(Nc1ccc(Cl)cc1)N1CCOC12CCC1(CC2)OCCO1	inactive
COCc1ccc(C(=O)N2CCCC(C(=O)c3cc(F)ccc3F)C2)s1 (stereo not given)	inconclusive [inhibitor, partial curve, poor fit]
O=c1[nH]cc(F)c(=O)[nH]1	active: 6.75 µM and active: 6.57 µM
Oc1ccc(Cl)cc1C1=NNC(c2cc(Br)cc3c2OCOC3)C1 (stereo not given)	inconclusive [inhibitor, single point]
Cc1cc2nc3n(c2cc1C)CC1CC(C(=O)NCCC(C)C)N(C)C31 (stereo not given)	inconclusive [inhibitor, single point]
COc1ccc(C2c3cc(OC)c(OC)cc3CCN2C(=O)c2ccccc2)cc1OC (stereo not given)	inconclusive [inhibitor, single point]
Cc1cccn2cc(CCNC(=O)Cc3cccs3)nc12	inactive
COc1ccccc1-c1nnc(SC(C)C(=O)N2CCOCC2)o1 (stereo not given)	inactive
CCOC(=O)c1ccc(CSC(=N)N)o1	inconclusive [inhibitor, single point]
CC(=O)c1ccc(NC(=O)COC(=O)c2c3c(nc4ccccc24)/C(=C\c2cccs2)CCC3)cc1	inconclusive [inhibitor, single point]
Cc1cccc(N2C(=O)c3cccc4c(N(C)CCO)ccc(c34)C2=O)c1	inconclusive [inhibitor, partial curve]
CC1CCC2C(=O)N(c3ccc(C(=O)NCc4ccccc4)cc3)C(=O)C2C1 (stereo not given)	inactive
CCC(C)[C@@H](NC(=O)OC(C)(C)C)c1nnc(S(=O)(=O)Cc2cccc(C)c2)o1 (stereo not given in full)	inactive
CCCCN(C(=O)CC1OC(=O)c2ccccc21)c1c(N)n(CCCC)c(=O)[nH]c1=O (stereo not given)	inconclusive [inhibitor, single point]

Structure (SMILES)	Potency
O=C(c1ccoc1)N1CCC(CO)(CCc2ccccc2)CC1	inactive
COc1ccc(N(CC(=O)Nc2ccc(F)cc2)S(=O)(=O)c2ccccc2[N+](=O)[O-])c(OC)c1	inconclusive [inhibitor, single point]
COc1ccc(N2CCN(C(=O)CN(C)S(=O)(=O)c3ccc4c(c3)c(=O)n(C)c(=O)n4C)CC2)cc1	inconclusive [inhibitor, partial curve, poor fit]
CNc1nc2cc([N+](=O)[O-])c([N+](=O)[O-])cc2nc1NC	inconclusive [inhibitor, single point]
CN(C)c1ccc(C(C(=O)NCc2ccccc2)N(Cc2ccco2)C(=O)c2snc(C(N)=O)c2N)cc1 (stereo not given)	inconclusive [inhibitor, partial curve]
COc1ccc(/C=N/n2cnnc2)cc1COc1ccccn1	inactive
CCn1nnnc1SCC(=O)Nc1nc(C)c(C)s1	inactive
Cc1nc(-c2coc3cc(OCC(=O)O)ccc3c2=O)cs1	inconclusive [inhibitor, partial curve]
COc1ccc(-n2nnnc2/C=C\Nc2ccccc2C(=O)c2ccccc2)cc1	inconclusive [inhibitor, partial curve]
CCOC(=O)CNC(=O)N1c2ccccc2Sc2ccccc21	inactive
CN(C)c1ccc(C(O)Cc2nc3ccccc3n2C)cc1 (stereo not given)	inactive
Cc1csc(NC(=O)CCC(=O)N(CC(=O)NC2CCCC2)c2ccccc2)n1	inconclusive [inhibitor, partial curve, poor fit]
CN(C)S(=O)(=O)c1cccc(NC(=O)c2sccc2-c2ccccc2)c1	inconclusive [inhibitor, partial curve]
Cc1cc2nc(NC3=NCN(CCN4CCOCC4)CN3)nc(C)c2cc1C	inconclusive [inhibitor, single point]
O=C(NCC1CCCO1)c1cccc(S(=O)(=O)Nc2ccc(F)cc2)c1 (stereo not given)	inactive
O=c1[nH]n(-c2ncnc3c2cnn3-c2ccccc2)c(=O)c2ccccc12	inactive
c1ccc2c(Cn3ccnc3)cccc2c1	inconclusive [inhibitor, partial curve, poor fit]
Cn1c(NC(=O)C[n+]2cc(-c3ccc(Cl)c(Cl)c3)n3c2CCC3)cc(=O)n(C)c1=O	active: 1.31 µM
c1ccc(C2[C@H]3CN(CC4CCCCC4)[C@H](c4ccccc4)C34CC2(c2ccccc2)C4)cc1 (stereo not given in full)	inconclusive [inhibitor, single point]
CCOC(=O)CC(=O)CSc1nc2cc(C)ccc2cc1C	inconclusive [inhibitor, single point]
CCOC(=O)C(C)Oc1ccc(C2NC(=O)NC(C)=C2C(=O)Nc2ccccc2C)cc1 (stereo not given)	active: 10.4 µM
O=C(C1CCN(S(=O)(=O)c2cccs2)CC1)N1CCN(c2ccccc2O)CC1	inconclusive [inhibitor, single point]
